Where “and” joins values, the source holds several entries; their conditions need not be identical. Equal entries are not always repeated.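 Method: 48-hour compound exposure of cells in 96-well plates, five concentrations, linear interpolation of endpoints. GI50 marks 50% less growth. TGI: concentration producing complete growth inhibition.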

From PubChem BioAssay (NCI) come the findings set out here.

The experiment concerns NCI-H322M lung. Description: inhibition of tumour cell growth, NCI panel, 48 h.
The molecule `N#Cc1nc(CCc2nc(C#N)c(N)o2)oc1N` had a TGI above 10 µM. As to `COC(=N)C1(C#N)NC(c2ccsc2)C(C#N)(C#N)NC1c1ccsc1` (stereo not drawn), the TGI was above 100 µM.

`Cc1cc(=O)[nH]c(NNC(C#N)c2cccc([N+](=O)[O-])c2)n1` (stereo not drawn) came in with a TGI above 100 µM. Still for that read-out and setting: then `COc1cc2c[n+]3c4c(c2c(OC)c1OC)CCCC4CC3` (stereo not drawn), with above 100 µM; and `O=c1c2cccnc2ncn1CCCN1CCCCC1`, with above 100 µM; and `Cc1nc(NC(C)(CO)CO)nc(N/N=C/c2ccc(Cl)cc2)c1C(=O)Nc1ccc(Cl)cc1`, with above 100 µM.

The molecule `COC(=O)C(C(=O)C(=O)Nc1c(C)cccc1C(C)(C)C)c1nc2ccc(Cl)cc2[nH]c1=O` (stereo not drawn) yielded a TGI above 100 µM. Still for that read-out and setting: the figure for `COc1ccccc1NC(=O)C(=O)C(C(=O)c1ccccc1F)C1OC(=O)c2ccccc21` (stereo not drawn) is 83.1 µM; for `COc1nc(Cl)nc(N[C@H](C)c2c3ccccc3cc3ccccc23)n1` it is 9.7 µM.

`CCOc1ccc(NC(=O)/C(CC(=O)c2c[n+](=O)c3ccccc3n2[O-])=N\OCCCc2ccccc2)cc1` came in with a TGI above 100 µM. `N=C1CCCC1C(=S)SCCC(N)=O` (stereo not drawn) had a TGI above 100 µM. On the same count and under the same terms, the figure for `COC(=O)c1sc(=O)sc1SCc1cccc(CSc2sc(=O)sc2C(=O)OC)c1` is above 100 µM. For the molecule `CCCC(=O)O[C@]1(C)CC[C@@H]2[C@H]3[C@@H]1[C@@H]1C[C@@](C)(O)[C@H](OC)CC[C@](C)(OC(=O)[C@@H]2C)[C@H]3O1`, the GI50 is 19.2 µM and the TGI was found to be 49 µM. Molecule `CCOP(=O)(/C=C/n1cc(C)c(=O)[nH]c1=O)OCC` registered a TGI above 100 µM. Turning to `N#CCCC(C=O)(CCC#N)CCC#N`, the TGI is above 100 µM. Same read-out and setting: then `Cc1nc2c(Br)cc(Br)cc2c(=O)n1-c1ccccc1NC1OC(CO)C(O)C(O)C1O` (stereo not drawn), with above 100 µM. Still for that read-out and setting: then `CCOc1ccc2nc(NC(=O)C(=O)C(C(=O)c3ccccc3F)C3OC(=O)c4ccccc43)sc2c1` (stereo not drawn), with 77 µM.

As for `O=S(=O)(Nc1nc2ccccc2nc1N1CCCCCC1)c1ccccc1`, the TGI is above 100 µM. `CC(=O)NC1C(OCc2ccccc2)OC(CO)C(O)C1OC(C)C(=O)N[C@@H](C)C(=O)N[C@H](CCC(=O)NCCNCCNc1c2ccccc2nc2cccc([N+](=O)[O-])c12)C(N)=O` (stereo partly drawn) gave a TGI of 0.623 µM.

In turn, `C=C(Br)CN=CN(C)C` gave a TGI above 100 µM. Still for that read-out and setting: then `Oc1ccc(Cl)cc1C=Nc1cnc2ccccc2c1`, with above 90.6 µM; and `O=CCCCCCOCc1ccccc1`, with above 100 µM. Molecule `C=CCC(O[Si](C)(C)C(C)(C)C)c1cc(O[Si](C)(C)C(C)(C)C)ccc1OC` (stereo not drawn) returned a TGI above 100 µM. As to `COc1cc2c(cc1OCCNC(=O)/C=C1\C[C@H]3C=Nc4cc(OCc5ccccc5)c(OC)cc4C(=O)N3C1)N=C[C@@H]1CCCN1C2=O`, the GI50 was 21.2 µM and the TGI worked out at 59.7 µM. Molecule `Clc1ccc2c(c1)N(CCCN1CCCC13CCCCC3)c1ccccc1S2` returned a TGI above 53.3 µM. On to `CCCCNC(c1ccc(Cl)cc1)C(O)c1ccc(Cl)cc1` (stereo not drawn), for which the GI50 was 1.75 µM and the TGI is 5.61 µM. `Cc1cc2c(c(C(=O)O)c1C)-c1cccc(Cl)c1C2=O` had a TGI above 100 µM. For the molecule `OCc1ccc(N(Cc2ccc(F)cc2)Cc2ccc(F)cc2)cc1Cl`, the GI50 was 10.2 µM and the TGI is 22.5 µM. The molecule `Cc1c(C)c2c(c(N)c1C#N)C(=O)N(N)C2=O` registered a TGI above 100 µM. Same read-out and setting: the figure for `C=C1c2nc3ccccc3n2C=C(c2ccc(C)cc2)N1c1ccc(OC)cc1` is above 100 µM.

With `CC(=O)C(=Cc1cn(C)c(=O)n(C)c1=O)C(C)=O`, the TGI is 180 µM. `O=c1c(Cc2ccccc2)c(O)cc2n1CCC2` displayed a TGI above 100 µM. For `O=C1CC23CCCCCCCCCCC2(C1)CC(=O)C3` (stereo not drawn), the TGI was above 100 µM. `COc1cc2c(cc1OC)C(=O)N(c1ccc(OCCN3CCCC3)cc1)C2` gave a TGI above 100 µM. Same read-out and setting: the figure for `C/C(=N\Nc1nc2ccccc2s1)c1ccncn1` is above 59.4 µM. For the molecule `Cn1c(COC(=O)NCCn2ccnc2)nc2c(N3CCOCC3)nc(-c3ccccc3)nc21`, the GI50 was 1.51 µM and the TGI amounted to 2.92 µM. For the molecule `C=C1C(=O)O[C@@H]2/C=C(/C)[C@@H](OC(C)=O)C/C=C(\C)C(O)[C@@H](OC(=O)/C(C)=C\C)C12` (stereo partly drawn), the TGI is above 100 µM. For the molecule `CCOC(=O)Nc1ccc2nc(-c3cscn3)[nH]c2c1`, the GI50 was 49.3 µM and the TGI is above 100 µM. For `OCC(O)C(O)C(O)C(/C=N\Nc1ncnc2c(Br)cc(Br)cc12)=N/Nc1ncnc2c(Br)cc(Br)cc12` (stereo not drawn), the TGI is 33.6 µM and > 100 µM. The same measure, in the same setting: then `CC1=C(CO)C(=O)OC(C(C)C2CCC3C4CC5OC56C(O)C(N5CC5)=CC(=O)C6(C)C4CCC23C)C1` (stereo not drawn), with 26.6 µM; and `Cn1c(=O)oc2cc(C3CCC(=O)N3Cc3csc(-c4ccccc4)n3)ccc21` (stereo not drawn), with above 100 µM. The same measure, in the same setting: the figure for `Oc1ccc(C(O)C2CCCCN2)cc1O` (stereo not drawn) is above 100 µM. Still for that read-out and setting: the figure for `O=P1(N(CCCl)CCCl)Oc2ccc(Cl)cc2C(C(Cl)(Cl)Cl)c2cc(Cl)ccc2O1` (stereo not drawn) is above 100 µM; for `COc1cc(C)c2c(c1)CN1CN2Cc2cc(OC)cc(C)c21` it is above 100 µM; for `NC(=O)[C@H](Cc1ccc(O)cc1)Nc1c(O)c2c(c(O)c1Cl)C(=O)C=CC2=O` it is above 10 µM. With `O=C(Nc1sc2c(c1C(=O)O)CCCC2)c1ccco1`, the GI50 is above 50 µM and the TGI is above 50 µM.

Consider `CCOC(=O)NC(=S)N(CC(=O)c1cc(OC)c(OC)c(OC)c1)c1ccc(Cl)cc1`, for which the GI50 is 33.6 µM and the TGI is above 100 µM. Regarding `O=C1c2ccccc2-c2nc3ccncc3n21`, the TGI was above 100 µM.

For `NC(=O)CCC(N=c1c2ccccc2n(O)c2ccccc12)C(=O)O` (stereo not drawn), the TGI is above 100 µM. `C/C(=C1\N=C(c2ccccc2)OC1=O)c1ccccc1` gave a TGI above 100 µM. `C[n+]1cccc2ccc3cccnc3c21` registered a TGI above 100 µM. Molecule `Cc1cc(Cl)ccc1NC(=O)CCCC(=O)C1C/C(=N/O)CC/C1=N\O` (stereo not drawn) registered a TGI above 100 µM.

Consider `CC(C)(C)C[C@H]1N[C@@H](C(=O)NC2CCC(O)CC2)[C@H](c2cccc(Cl)c2F)[C@@]12C(=O)Nc1cc(Cl)ccc12` (stereo partly drawn), for which the GI50 was 11.4 µM and the TGI is 24 µM.

With `COC(=O)c1c2c(cc3c1CC1(Cc4cc5c(c(C=O)c4C1)CCC5)C3)CCC2` (stereo not drawn), the TGI is above 100 µM. Take `CN1CCN(C2=NC(=O)/C(=C\c3ccc(N(C)C)cc3)S2)CC1`: the GI50 is above 100 µM and the TGI was above 100 µM. Molecule `NCCO/C=C/C(N)C(=O)O` (stereo not drawn) had a TGI above 100 µM. Same read-out and setting: then `Cc1ccccc1NC(=O)O/N=C(\Cl)C(C)C`, with 32.4 µM. For the molecule `CCCCCCCC(=O)OCC/C=C/C1OC1C1OC(=O)/C=C\C=C\C(=O)N(C(C)=O)C(=O)/C=C(/C)CCC2OC2C1OC(=O)NC(C)=O` (stereo not drawn), the GI50 was 9.35 µM and the TGI is above 25 µM. `CC(=O)n1[nH]c(=O)n(-c2ccc(Cl)cc2)c1=O` had a TGI above 100 µM.

Turning to `O=C(CC1=Nc2nnc(CCCCCCCc3nnc4n3C(=O)C(CC(=O)c3ccc5ccccc5c3)=N4)n2C1=O)c1ccc2ccccc2c1`, the TGI is above 100 µM. `CN1CCN(C(=O)c2cn(Cc3cncn3Cc3ccc4c(c3)OCO4)cc2-c2cccc3ccccc23)CC1` gave a TGI above 100 µM. Consider `O=C1[C@@H]2[C@@H](CN3CN(c4ccccc4)N=C(c4ccccc4)[C@@]23c2ccccc2)C(=O)N1c1ccccc1`, for which the TGI was determined as 32.5 µM. Still for that read-out and setting: then `COc1cc(CCNC2=CC(=O)c3nc[nH]c3C2=O)ccc1O`, with 76.8 µM.

Take `Cc1ccc(/C(=N/Nc2ccc([N+](=O)[O-])cc2)Sc2cc(Cl)c(C)cc2S(N)(=O)=O)cc1`: the GI50 is 1.79 µM and the TGI was determined as 4.48 µM.

On to `Clc1ccc2c(NCCCCCCNc3ccnc4cc(Cl)ccc34)ccnc2c1`, for which the TGI is 16.1 µM. As for `CSc1nc(Nc2cccc(NC(=O)CCl)c2)c(C#N)c(-c2cccc([N+](=O)[O-])c2)n1`, the GI50 is 7.82 µM and the TGI came to 20.5 µM. With `C[C@@H]1C[C@@H]([C@H](O)CC2CC(=O)NC(=O)C2)C(=O)[C@@H](C)C1`, the GI50 was 0.222 µM; the TGI is 4.92 µM and 1.69 µM. `CC1CCC2C(C)C(=O)OC2C2(C)C(=O)C=CC12` (stereo not drawn): the TGI is above 10 µM.

As to `COc1ccc(-n2c(=S)sc3c(Cl)nc(C)nc32)c(OC)c1`, the GI50 was 2.51 µM and the TGI came out at 6.47 µM. `O=C1NC(O)n2c(=O)[nH]c(=O)n21` (stereo not drawn) registered a TGI above 100 µM. Consider `C[C@@]1(F)[C@H](O)[C@@H](CO)O[C@H]1n1ccc(=O)[nH]c1=O`, for which the GI50 was above 100 µM and the TGI is above 100 µM. For the molecule `COc1cc(C2CC(c3ccc(Nc4nc(NCCO)nc(NCCO)n4)cc3)=NN2c2cc(Cl)cc(Cl)c2)cc(OC)c1OC` (stereo not drawn), the GI50 is 3.01 µM and the TGI is 9.79 µM.

Regarding `O=c1[nH]c(C2CCCN2)nc2c1oc1ccc(Cl)cc12` (stereo not drawn), the GI50 was above 100 µM and the TGI was above 100 µM. In the case of `O=C1c2cc3c(cc2-c2c1c1cc(F)c(F)cc1c(=O)n2CCCn1ccnc1)OCO3`, the GI50 is 0.0977 µM and the TGI is above 100 µM.

In the case of `O=C1c2cccc3cccc(c23)C(=O)N1CCCCCN1CCN(CCN=c2cc3n(-c4ccc(Cl)cc4)c4ccccc4nc-3cc2Nc2ccc(Cl)cc2)CC1`, the GI50 was 39.6 µM and the TGI was above 50 µM. The like results for `COc1cc(N2C(=O)[C@H](Cl)C2c2ccc(SC)cc2)cc(OC)c1OC` (stereo partly drawn) were, in that order, 2.66 µM and above 100 µM.

The molecule `COc1ccc(N2C(=O)C3c4[nH]c5c(C)cccc5c4C4CCC(C(C)C)CC4C3C2=O)cc1` (stereo not drawn) gave a TGI of 30.1 µM. Same read-out and setting: the figure for `Cc1nnc2n1N=C(c1ccccc1)C(c1ccccc1)S2` (stereo not drawn) is above 100 µM. On to `C[C@]12CC[C@H]3[C@@H](CC=C4C[C@@H](N5CCCC5)CC[C@@]43C)[C@@H]1C[C@H](N1CCCCC1)[C@@H]2O`, for which the TGI is above 100 µM.

In the case of `Nc1[nH]c(=O)nc2c1ncn2C1OC(CO)C(O)C1O` (stereo not drawn), the TGI was above 100 µM.

As to `COc1ccc2c(c1)C(=O)c1c-2c(OCCCN(C)C)nc2cc(Br)ccc12`, the GI50 was 3.01 µM and the TGI was determined as 15.5 µM.

Turning to `C[C@H]1S[C@@H](c2ccc(Cl)cc2Cl)N(NC(=O)c2ccncc2)C1=O`, the TGI was above 100 µM. In turn, `c1ccc2c(c1)[nH]c1c2nc2ccccn21` yielded a TGI above 100 µM. On to `C/C(=N/NC(=S)Nc1ccccc1)c1nc2ccc(Cl)cc2[nH]1`, for which the GI50 is 0.05 µM and the TGI is 0.672 µM.

`Clc1ccccc1C(Nc1cnccn1)Nc1cnccn1` returned a TGI above 100 µM.
